Results: PubChem BioAssay AID588342 (National Center for Advancing Translational Sciences (NCATS), 2011)
The whole screen tested about 360,000 compounds, of which about 25,000 (6.9%) were called active. The inconclusive results got no clear call from the source; some entries with a clear call stand among them for comparison. Calls follow the shape of the dose curve; as a rule, active = well fitted inhibition curve with a large enough effect; inconclusive = small, poorly fitted or top-dose-only effect; inactive = flat fitted curve, though single readings scatter. Where the call is inconclusive, the potency comes from a doubtful curve fit.

Target: Luciferin 4-monooxygenase (Photinus pyralis) (UniProt P08659)
Experiment: qHTS profiling assay for firefly luciferase inhibitor/activator using purifed enzyme and Km concentrations of substrates (counterscreen for miR-21 project); also: nearly all actives have a fitted effect of over 55% in size
Settings: purified FLuc, luminescence inhibition; series mostly up to 57.5 µM
In short: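 Purified P. pyralis luciferase (10nM final) with 10uM D-luciferin and 10uM ATP (Km levels) in 50mM Tris acetate pH 7.5, 10mM Mg acetate, 0.01% Tween-20, 0.05% BSA; qHTS 6-point titration, ~60 µM downward; luminescence read.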
Potency is read from the fitted curve at half-maximal effect; tags tell the direction and shape of the fitted curve.

Sequence of UniProt P08659 (P08659 whole entry, looked up): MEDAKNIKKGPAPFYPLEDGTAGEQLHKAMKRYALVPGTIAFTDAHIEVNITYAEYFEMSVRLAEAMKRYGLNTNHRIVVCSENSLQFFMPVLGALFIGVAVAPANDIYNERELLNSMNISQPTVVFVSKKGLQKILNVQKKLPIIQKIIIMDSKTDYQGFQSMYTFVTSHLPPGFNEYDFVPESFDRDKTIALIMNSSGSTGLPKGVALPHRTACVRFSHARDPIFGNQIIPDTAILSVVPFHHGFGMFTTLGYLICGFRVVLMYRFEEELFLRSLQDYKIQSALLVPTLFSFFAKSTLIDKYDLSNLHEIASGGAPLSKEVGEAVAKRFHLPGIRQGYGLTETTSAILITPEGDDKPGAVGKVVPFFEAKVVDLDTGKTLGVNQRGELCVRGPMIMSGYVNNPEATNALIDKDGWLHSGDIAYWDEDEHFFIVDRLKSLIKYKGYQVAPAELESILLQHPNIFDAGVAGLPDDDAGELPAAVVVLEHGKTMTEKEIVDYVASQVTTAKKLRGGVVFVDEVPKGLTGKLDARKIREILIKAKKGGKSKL

SMILES	Potency
CC(C)(C)Nc1ncnc2c1cnn2-c1ccccc1	active: 1.51 µM
O=C(Cn1sc2ccccc2c1=O)NC12CC3CC(CC(C3)C1)C2	active: 7.57 µM
CC1(C)Cc2c(ccc3ccccc23)-c2nnc(-c3cccnc3)n21	inconclusive: 19 µM [inhibitor, partial curve, poor fit]
COc1cccc(CN2CCc3nc(Nc4ccc5c(c4)OCCO5)ncc3C2)c1OC	inconclusive: 16.9 µM [inhibitor, partial curve]
O=C(c1ccccc1)c1ccc(N2CCOCC2)c(NC(=O)c2ccco2)c1	inactive
CCc1ccc(C(=O)NC(CCSC)C(=O)OC)cc1 (stereo unspecified)	active: 19 µM
Cc1cnc(NC(=O)CSc2nnc(-c3ccccc3)o2)s1	inactive
COc1ccc(-c2cc(C(=O)OCC(=O)NC3CC3)c3ccccc3n2)cc1	active: 3.79 µM
O=C(Nc1nc2c(ccc3ccccc32)s1)c1cc([N+](=O)[O-])ccc1N1CCOCC1	inconclusive: 15.1 µM [inhibitor, partial curve]
Clc1cccc(-n2ncc3c(NCCc4ccccc4)ncnc32)c1	inconclusive: 37.9 µM [inhibitor, single point]
O=C(NCCc1ccc(Cl)cc1)c1c2c(nc3ccccc13)C(=O)N(C1CCCCC1)C2	inconclusive: 42.6 µM [inhibitor, partial curve, poor fit]
CC(C)n1nc(C(=O)Nc2nc3ccccc3[nH]2)c2ccccc2c1=O	inconclusive: 37.9 µM [inhibitor, partial curve, poor fit]
Cc1ccc(NC(=S)N(Cc2ccco2)C(C)c2cccs2)cc1 (stereo unspecified)	inconclusive: 15.1 µM [inhibitor, partial curve]
Cc1ccc(C2=NS(=O)(=O)N(C)C(C(=O)Nc3ccc4c(c3)OCO4)=C2)cc1	inconclusive: 37.9 µM [inhibitor, single point]
COCCn1c(SCC(=O)Nc2cc(Cl)ccc2OC)nc2c([nH]c3ccccc32)c1=O	inactive
Clc1ccc(-c2nc3ccccn3c2CN2CCCCC2)cc1	inconclusive: 33.8 µM [inhibitor, single point]
O=C1c2ccccc2C(=O)N1CCCc1c[nH]c2ccccc12	inactive
N#Cc1ccccc1N=Cc1ccc(Br)cc1	active: 1.51 µM
CN1CCN(c2ccc(NC(=O)c3ccc([N+](=O)[O-])o3)cc2Cl)CC1	active: 9.53 µM
O=C(Nc1ccccc1C(=O)O)c1cccc(NC(=O)c2ccco2)c1	active: 15.1 µM
Cc1ccc(S(=O)(=O)N2CCN(C(=O)COc3ccc(NC(=O)c4ccco4)cc3)CC2)cc1	inconclusive: 8.49 µM [inhibitor, partial curve, poor fit]
